In a collection of fitness landscapes (doi:10.1016/j.celrep.2020.107928):
Whole data set: some 81,000 sequences, median “one-hybrid fitness for binding NBS DNA” near -0.1, cut for the highest 2% near 0.36. The list shows a part of the results.

B1: Caulobacter ParB omega fusion; a variant is named by its letters at X, in order, B8GW30 (parent)
chain: MESVVVGEPGMSEGRRGLGRGLSALLGEVDAAPAQAPGEQLGGSREAPIEILQRNPDQPRRTFREEDLEDLSNSIREKGVLQPILVRPSPDTAGEYQIVAGERAWRAAQRAGLKTVPIMVRELDDLAVLEIGIIENVQRADLNVLEEALSYKVLMEKFERTQENIAQTIGKSXSHVANXMRLLXLPDEVQSYLVSGELTAXHARAIAAAADPVALAKQIIEGGLSVRETEALARKAPNLSAGKSKGGRPPRVKDTDTQALESDLSSVLGLDVSIDHRGSTGTLTITYATLEQLDDLCNRLTRGI

Variants of: B1
Assay: one-hybrid fitness for binding NBS DNA (the Noc-binding site; scaled: cognate 1, non-cognate 0); higher = stronger binding
Conditions: with NBS DNA site
In short: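 The reporter was HIS3, with the binding site 19 bp from the promoter, in E. coli USO used for bacterial one-hybrid selection of Caulobacter ParB libraries with four specificity codons randomised. Growth was on M9 lacking histidine, with 0.1 mM IPTG and 5 mM 3-AT, for 48 hours at 37°C. Illumina sequencing covered plasmids before and after selection; three replicate libraries were pooled and variants with under 10 reads dropped. A fitness score is the log change in variant-to-wild-type read ratio, rescaled to the cognate and non-cognate references.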

Variant | one-hybrid fitness for binding NBS DNA
MQGF | ≤ 0.2
TACF | ≤ 0.2
SSDP | ≤ 0.2
QWRF | ≤ 0.2
RGII | ≤ 0.2
YYSP | ≤ 0.2
MLTK | ≤ 0.2
RCIA | ≤ 0.2
LLRS | ≤ 0.2
FTRT | ≤ 0.2
PYRC | ≤ 0.2
THAD | ≤ 0.2
EIFS | ≤ 0.2
VQST | ≤ 0.2
KSQH | ≤ 0.2
NTPG | ≤ 0.2
LLIM | ≤ 0.2
MPFK | ≤ 0.2
FYTG | ≤ 0.2
HIFY | ≤ 0.2
AICT | ≤ 0.2

Variant | one-hybrid fitness for binding NBS DNA
ISPS | ≤ 0.2
QAMN | ≤ 0.2
RFEN | ≤ 0.2
QIRQ | 0.296
QGSN | ≤ 0.2
PLDS | ≤ 0.2
CCAK | ≤ 0.2
QTEE | ≤ 0.2
YYRE | ≤ 0.2
GDKT | ≤ 0.2
NTRH | ≤ 0.2
AVFD | ≤ 0.2
DERT | ≤ 0.2
RMSE | ≤ 0.2
VPKT | ≤ 0.2
VPAT | ≤ 0.2
AWSH | ≤ 0.2
PHSP | ≤ 0.2
NEWR | ≤ 0.2
ISKI | ≤ 0.2
SVGK | ≤ 0.2

Variant | one-hybrid fitness for binding NBS DNA
MASR | ≤ 0.2
YRFY | ≤ 0.2
MYHV | ≤ 0.2
WFRG | ≤ 0.2
ESQH | ≤ 0.2
YAPF | ≤ 0.2
DISW | ≤ 0.2
PTMF | ≤ 0.2
CRDT | ≤ 0.2
QKIA | 0.228
PCYS | ≤ 0.2
DLMC | ≤ 0.2
YSKR | ≤ 0.2
WRNC | ≤ 0.2
RFRC | ≤ 0.2
RDPK | ≤ 0.2
ISMS | ≤ 0.2
HYWT | ≤ 0.2
ITLG | ≤ 0.2
HQTL | ≤ 0.2
QIVR | 0.271

Variant | one-hybrid fitness for binding NBS DNA
DASY | ≤ 0.2
KLLD | ≤ 0.2
DPFR | ≤ 0.2
FQTS | ≤ 0.2
TLQM | ≤ 0.2
FSRK | ≤ 0.2
RWFN | ≤ 0.2
IRKC | ≤ 0.2
GRAM | ≤ 0.2
TWII | ≤ 0.2
SRFV | ≤ 0.2
AEQR | ≤ 0.2
RDRR | ≤ 0.2
SRMC | ≤ 0.2
NSIA | ≤ 0.2
DQPW | ≤ 0.2
REFV | ≤ 0.2
RKEM | ≤ 0.2
AWSY | ≤ 0.2
KYHT | ≤ 0.2
NFTR | ≤ 0.2
